About 14,000 (4.5%) of roughly 310,000 compounds showed an effect of 50% or more. Effects have a minus sign here. The list shows a part of the results.
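Also: peak tail current of the secondary pulse compared with the same well before compound.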

For the assay, the target named is human ether-à-go-go-related gene (hERG) potassium channel (human, UniProt Q12809). The assay is described as follows: primary screen, population patch clamp on CHO cells stably expressing hERG.
Sequence of human ether-à-go-go-related gene (hERG) potassium channel (Q12809 whole entry, looked up): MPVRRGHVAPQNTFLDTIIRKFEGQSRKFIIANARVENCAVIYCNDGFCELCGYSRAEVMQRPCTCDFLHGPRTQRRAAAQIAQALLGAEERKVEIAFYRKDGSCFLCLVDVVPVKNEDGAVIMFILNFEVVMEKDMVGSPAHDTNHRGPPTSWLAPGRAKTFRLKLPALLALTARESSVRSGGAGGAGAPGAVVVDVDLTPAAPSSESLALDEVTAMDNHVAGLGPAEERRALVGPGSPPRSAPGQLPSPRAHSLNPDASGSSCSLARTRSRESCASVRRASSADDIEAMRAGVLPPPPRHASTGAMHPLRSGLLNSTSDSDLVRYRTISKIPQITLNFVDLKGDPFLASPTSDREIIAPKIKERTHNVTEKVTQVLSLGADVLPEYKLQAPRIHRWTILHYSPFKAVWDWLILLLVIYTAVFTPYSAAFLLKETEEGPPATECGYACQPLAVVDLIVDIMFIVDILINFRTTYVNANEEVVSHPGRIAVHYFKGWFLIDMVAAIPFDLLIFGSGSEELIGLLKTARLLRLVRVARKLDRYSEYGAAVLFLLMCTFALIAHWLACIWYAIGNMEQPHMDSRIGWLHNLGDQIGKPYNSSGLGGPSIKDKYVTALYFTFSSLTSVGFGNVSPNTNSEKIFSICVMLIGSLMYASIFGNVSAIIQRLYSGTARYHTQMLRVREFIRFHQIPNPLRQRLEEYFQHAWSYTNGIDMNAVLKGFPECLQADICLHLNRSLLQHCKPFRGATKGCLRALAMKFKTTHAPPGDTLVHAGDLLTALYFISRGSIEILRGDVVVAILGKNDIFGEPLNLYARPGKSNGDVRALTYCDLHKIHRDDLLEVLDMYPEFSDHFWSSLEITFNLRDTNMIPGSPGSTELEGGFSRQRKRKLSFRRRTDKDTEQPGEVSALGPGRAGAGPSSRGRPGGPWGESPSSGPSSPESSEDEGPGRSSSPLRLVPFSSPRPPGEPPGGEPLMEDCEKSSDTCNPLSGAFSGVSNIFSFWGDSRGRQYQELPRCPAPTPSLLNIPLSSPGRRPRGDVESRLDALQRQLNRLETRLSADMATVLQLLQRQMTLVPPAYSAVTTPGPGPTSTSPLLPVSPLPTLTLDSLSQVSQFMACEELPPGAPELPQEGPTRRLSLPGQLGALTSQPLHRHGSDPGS
For the compound `COc1ccccc1-c1ccc(NC2CCCC2)nn1`, the “hERG current change (%, negative = inhibition) at 10uM” value was -32.7%. Under `O=C(COC(=O)CCCNC(=O)c1ccc(Cl)cc1)NCc1ccccc1Cl` stands -28.8%; under `COc1cccc(/C=C2\SC(=S)N(C(Cc3ccccc3)C(=O)O)C2=O)c1` (stereo not drawn), 18.3%; under `CCN(CC(=O)NCc1ccc(F)cc1)C(=O)Cc1ccc(OC)cc1`, -63.5%. To `COc1ccc(Cc2nc3ccc(C(=O)NC(C)c4cnn(C)c4)cc3o2)cc1` (stereo not drawn) belongs 2.04%; to `CCn1cc(CNC(=O)CC2C(=O)NCCN2CC(c2ccccc2)c2ccccc2)cn1` (stereo not drawn), 14.4%. To `Cc1ccccc1CC(=O)c1ccc(O)c(C)c1O` belongs 1.81%; to `Cc1ccc(S(=O)(=O)N(C)C)cc1NC(=O)COC(=O)C1=COCCO1`, -5.68%; to `CCN(CC)C(=O)CN(c1cc2c(cc1OC)oc1ccccc12)S(=O)(=O)c1ccc(C)cc1`, -3.73%. As for `COc1cccc(-n2c(SC)nnc2-c2cnccn2)c1`, the “hERG current change (%, negative = inhibition) at 10uM” value worked out at 3.46%. In the case of `CN1C(=O)/C(=C2\SC(=S)N(C(CCC(=O)O)C(=O)O)C2=O)c2ccccc21` (stereo not drawn), the “hERG current change (%, negative = inhibition) at 10uM” value was determined as 13%. Under `Cc1nn(-c2ccccc2)c2nc(-c3ccncc3)cc(C(=O)NCc3ccco3)c12` stands -66.6%.

As to `N#Cc1ccc(COC(=O)c2ccc3c(c2)OCO3)cc1`, the “hERG current change (%, negative = inhibition) at 10uM” value is on record as -27.4%. To `CCNC(=O)CSc1nnc(-c2cccc(S(=O)(=O)N(CC)CC)c2)n1CCc1ccccc1` belongs -9.82%; to `Cc1cccc(N2CCN(C(=O)C(C)n3nc(C)n4c(cc5occc54)c3=O)CC2)c1C` (stereo not drawn), -18.3%; to `COc1ccc(CCNC(=O)c2cn3ccc(C)cc3n2)cc1OC`, 1.66%. Take `C/C(=N/NC(=O)c1ccccc1)c1ccc(NC(=O)C(F)(F)F)cc1`: the “hERG current change (%, negative = inhibition) at 10uM” value is -0.422%. As for `O=S(=O)(NCCc1csc(-c2cccnc2)n1)c1cc(F)ccc1F`, the “hERG current change (%, negative = inhibition) at 10uM” value is given as -9.81%. Turning to `CCOc1ccc(Oc2cc(NC(=O)c3ccco3)cc([N+](=O)[O-])c2)cc1`, the “hERG current change (%, negative = inhibition) at 10uM” value turned out to be 7.22%. Under `CN(CC(=O)Nc1ccc(Cl)cc1)C(=O)C1=COCCO1` stands 9.26%; under `Brc1ccc(-c2nc(N/N=C/c3cccnc3)c3ccccc3n2)cc1`, 10.6%; under `Cc1ccccc1CN1CCc2c(OCC(=O)N3CCCCC3)cccc2C1=O`, -27.8%. For the compound `COc1cccc(C2CC(=O)Nc3n[nH]c(-c4ccccc4)c32)c1OC` (stereo not drawn), the “hERG current change (%, negative = inhibition) at 10uM” value is listed as -13.4%. To `Cn1c(SCc2ccc(F)cc2)nnc1-c1ccncc1` belongs 5.86%; to `CCn1ncc(C2=NOC(C(=O)Nc3cccnc3)C2)c1C` (stereo not drawn), 1.02%. To `Cn1c(N)c(C(=O)COC(=O)c2nc(Cl)ccc2Cl)c(=O)n(C)c1=O` belongs -11.2%; to `COc1ccc(OC)c(NC(=O)Nc2cccnc2)c1`, 11.2%.

Turning to `COc1ccc([N+](=O)[O-])cc1NS(=O)(=O)c1cccc(C(=O)O)c1`, the “hERG current change (%, negative = inhibition) at 10uM” value worked out at 16.7%. Regarding `C=CCNC(=O)C1CC(=O)N(c2ccc(OCc3ccccc3Cl)cc2)C1` (stereo not drawn), the “hERG current change (%, negative = inhibition) at 10uM” value came to 8.11%. Under `[O-][n+]1c2c(c3c4non(O)c4ccc31)CCCC2` stands 3.11%; under `Cc1ccc(S(=O)(=O)N2CCCC2C(=O)N2CCCCCC2)cc1` (stereo not drawn), -10.7%; under `CC1CC(CC(=O)Nc2nc(-c3ccccc3)cs2)C(=O)O1` (stereo not drawn), 22.2%. To `Oc1ccc(N=Nc2ccc3ccccc3c2)cc1` belongs 9.21%. With `O=C1CCC(C(=O)N2CCN(c3ccccc3Cl)CC2)CN1CC1CCCCC1` (stereo not drawn), the “hERG current change (%, negative = inhibition) at 10uM” value is given as -72.2%. For `O=C(CSc1nnc(-c2cccnc2)o1)Nc1cccc(Cl)c1`, the “hERG current change (%, negative = inhibition) at 10uM” value is listed as -13.4%.

On to `FC(F)(F)c1ccnc(Oc2ccc(C3=NCCS3)cc2)c1`, for which the “hERG current change (%, negative = inhibition) at 10uM” value stood at 14.5%. To `COc1cc(CNC2CCCCCCC2)cc(Cl)c1OC.Cl` belongs -2%; to `O=S(=O)(c1ccccc1)c1nc(-c2ccccc2)oc1N1CCCC1`, 8.44%. To `Cc1cnccc1CN(C)C(=O)CC1C(=O)NCCN1CC1CCCCC1` (stereo not drawn) belongs -4.59%; to `Cc1ccc(C)c2sc(NC(=O)c3ccc(N4CCCCC4)c([N+](=O)[O-])c3)nc12`, 8.22%. To `Cc1cc(NC(=O)CSc2nc3ccccc3c(=O)n2-c2ccccc2)no1` belongs 2.88%; to `Cc1nnc(N2CCCC(C(=O)NCc3cccc(F)c3)C2)c2nn(-c3ccccc3)c(C)c12` (stereo not drawn), -35.3%.

The values are drawn from article PMC4336329 (PLoS ONE, 2015).
